Experimental data as given in PMC5429092, “PPP1R15A-mediated dephosphorylation of eIF2α is unaffected by Sephin1 or Guanabenz” (eLife, 2017).

Target: PP1 (PP1G 1–323, full-length PP1 phosphatase catalytic subunit) (UniProt P63087)
Assay: cell-based or functional assay

Sequence of UniProt P63087 (P63087 whole entry): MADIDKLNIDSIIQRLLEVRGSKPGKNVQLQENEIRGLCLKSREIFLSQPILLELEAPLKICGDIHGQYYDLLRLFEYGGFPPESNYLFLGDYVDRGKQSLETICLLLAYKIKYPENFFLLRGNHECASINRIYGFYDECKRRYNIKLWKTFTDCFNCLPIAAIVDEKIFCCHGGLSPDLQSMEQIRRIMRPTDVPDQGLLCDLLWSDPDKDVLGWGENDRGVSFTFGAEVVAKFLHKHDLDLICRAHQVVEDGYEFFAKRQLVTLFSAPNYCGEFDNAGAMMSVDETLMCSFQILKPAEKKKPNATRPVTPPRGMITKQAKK

- EC50 of PPP1R15A^325-636 for the initial velocity of eIF2α-P dephosphorylation (PP1 0.625 nM, G-actin 1.5 µM): 5 to 10 nM
B1: human PPP1R15A^[…]-MBP (domain or fragment)
chain: EAECPPCIPPPSAFLKAWVYWPGEDTEEEEDEEEDEDSDSGSDEEEGEAEASSSTPATGVFLKSWVYQPGEDTEEEEDEDSDTGSAEDEREAETSASTPPASAFLKAWVYRPGEDTEEEEDEDVDSEDKEDDSEAALGEAESDPHPSHPDQRAHFRGWGYRPGKETEEEEAAEDWGEAEPCPFRVAIYVPGEKPPPPWAPPRLPLRLQRRLKRPETPTHDPDPETPLK[… about 80 residues …]APIPALTQTLPS
